From PubChem BioAssay (NCI) come the findings set out here.

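Tested at 5 concentrations; 48 h exposure; 96-well plates; endpoints linearly interpolated, else capped at highest concentration. GI50 = concentration required for 50% inhibition of growth.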 Not every entry of the source has a single result; some have several. This list holds those alone. There may be further records. For part of these data: The values listed for one entry repeat one measurement (runs, samples, wells, individuals or studies). Records carry a tag for their origin. Letters count within one entry.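 TGI: total growth inhibition.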 For part of these data: Records of one sample usually come from different ranges of test concentrations, which the source does not state; a value can be the end of its range.

Test systems include CAKI-1 renal; HL-60(TB) leukemia; HOP-62 NSCLC; SK-OV-3 ovarian; SNB-75 CNS; TK-10 renal; NCI/ADR-RES ovarian; PC-3 prostate; SF-539 CNS; SK-MEL-2 melanoma; SK-MEL-5 melanoma; U251 CNS; HCC-2998 colon; IGROV1 ovarian; MCF7 breast.
Common to all, as to test: growth of human tumour cells (NCI), 48 h

Consider `CO/N=C/C=C\C(=O)N/C=C/C[C@H]1/C=C/[C@H](O)/C=C\C=C\c2cccc(O)c2C(=O)O1`, for which the TGI in the experiment on CAKI-1 renal was > 32.7 µM [sample A, mean of 2 tests] and 181 nM [sample B, mean of 2 tests]; in the experiment with HL-60(TB) leukemia, 7.8 µM [sample A, mean of 2 tests] and 508 nM [sample B, mean of 2 tests]; in the experiment on HOP-62 NSCLC, > 100 µM [sample A, mean of 2 tests] and 7.76 µM [sample B, mean of 2 tests]; with SNB-75 CNS it was > 100 µM [sample A, 1 test] and 521 nM [sample B, mean of 2 tests]. Also, the GI50 in the experiment with SK-OV-3 ovarian was 15.1 µM [sample A, mean of 2 tests] and 44.7 nM [sample B, 1 test]; in the experiment with SNB-75 CNS, 3.62 µM [sample A, 1 test] and 23.9 nM [sample B, mean of 2 tests]; in the experiment on TK-10 renal it was 9.24 µM [sample A, mean of 2 tests] and 228 nM [sample B, mean of 2 tests].

Turning to `Cc1ccnc2[nH]c(-c3cccc4ccccc34)cc(=O)c12`, the TGI was 48.6 nM and > 100 µM with NCI/ADR-RES ovarian; 398 nM and > 100 µM with PC-3 prostate; 64.8 nM and > 100 µM with SF-539 CNS; 6.83 nM and 34.6 µM in the experiment with SK-MEL-2 melanoma; 14.4 nM and 2.88 µM in the experiment on SK-MEL-5 melanoma; 617 nM and 28.8 µM in the experiment on SK-OV-3 ovarian. Further, the TGI in the experiment with U251 CNS is 479 nM and > 100 µM.

With `CC(=O)O[C@H]1C(=O)[C@@]2(C)[C@H]([C@H](OC(=O)c3ccccc3)[C@]3(O)C[C@H](OC(=O)[C@H](O)[C@@H](NC(=O)c4ccoc4)c4ccccc4)C(C)=C1C3(C)C)[C@]1(OC(C)=O)CO[C@@H]1C[C@@H]2O`, the TGI in the experiment on HCC-2998 colon was 139 nM and > 100 µM; in the experiment on HL-60(TB) leukemia, 46.4 nM and > 100 µM; in the experiment with IGROV1 ovarian it was 607 nM and > 100 µM; with MCF7 breast it was 387 nM and > 100 µM; in the experiment with SK-MEL-2 melanoma, 94.8 nM and > 100 µM; with SNB-75 CNS, 51.9 nM and > 100 µM. For the same molecule, in the experiment with U251 CNS, the TGI was 66.4 nM and 11.7 µM.
